# ± gives the standard deviation of the averaged measurements. The list shows a part of the results.
# Tested on: PfAP2-G AP2 domain (GST-tagged)
# Test: gcPBM binding intensity (ln(normalized median fluorescence intensity)); higher = stronger DNA binding
# Procedure, shortened: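 Using an Agilent 4 × 180k array, primer-extended double-stranded 36-bp intergenic genomic probes and negative controls were exposed for 1 h to GST-fused P. falciparum DNA-binding domains expressed in E. coli. Binding was carried out in 1× PBS with 1% milk, 0.2 mg/ml BSA, 0.5% salmon testes DNA and 0.03% Triton X-100, and protein was detected with Alexa488 anti-GST antibody and a 488 nm scan. Binding intensity is the highest Masliner-normalised natural-log median intensity across replicate spots of either probe orientation.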
row,Sequence,gcPBM binding intensity (ln)
1,TTCGTTCTTTTATGCACACTCAACATATAAATTAAA [CACACA_site1209],10.4 ± 0.38
2,TGTACAAATATGTACACACACACATATATATATATA [CACACA_site584],11.4 ± 0.91
3,TATTATTTTAAAAATGCATGTTCATATGAAATAATA [TGCATGCA_site969],9.99 ± 0.28
4,TTATAATATATATGTAGTACTGTTTTTTTCTATTTT [XGTACX_site7749],11 ± 0.63
5,ATACTATTATATATATGTACATATATATGATGCTCT [XGTACX_site1771],11.1 ± 0.67
6,AAGGAGCCTATGAACACACACATGTACATATATTAA [CACACA_site4084],11.2 ± 0.55
7,AATATATATTTATGTACACACTCCAATACAGATACA [CACACA_site5481],11.6 ± 0.95
8,CATATACATACACATACACACATACACCCATACACA [CACACA_site8514],10.4 ± 0.38
9,TGTAAAAAATTTAACACACACATATATAAATATGTA [CACACA_site7261],9.66 ± 0.028
10,AGTAAATAATTATATACATGCATTTACTAATATTTA [TGCATGCA_site952],9.76 ± 0.085
11,ATATGACGTAGTGGTGTACACACATGGTACCTTTAT [CACACA_site8436],11.9 ± 1.1
12,ACAAGACAACAAGGAAGTACTCATAAATATATTTGG [XGTACX_site1423],11.2 ± 0.66
13,TTTTTATGTGTATATTATTACATTTACATCTTTAAC [CACACA_negctrl_site1676],10 ± 0.042
14,CTCACATATATATATAGTACAATTTTTTTTTTTTTT [XGTACX_site5999],10.7 ± 0.4
15,ATGTAGAATTGTAAATGTACATGAAACACATATTCA [XGTACX_site3436],10.9 ± 0.38
16,AAGAAAAATACTACGTGTACCAAACTTCCTACCAAC [XGTACX_site1426],11.1 ± 0.54
17,TATATATATATATTATGTACATATAAATATATTTTT [XGTACX_site1509],11.3 ± 0.55
18,ATATATATATAAATATGTACATATTTATATATGAAT [XGTACX_site3220],11.3 ± 0.86
19,ATCTATATTATAATAACACACATATATTATAGTATA [CACACA_site6330],9.84 ± 0.18
20,TGTAAATATAAAAGATAATGATAAAAGGGACATTTT [CACACA_negctrl_site661],10.4 ± 0.25
21,AATATATATATGTGTACACATCCAAAATAGGCATAC [CACACA_site5705],11.7 ± 1.1
22,ATAACGGAAAAAAAAAGTACATGATATAAACATGAA [XGTACX_site8428],11.2 ± 0.75
23,TTTTTTTTTTTTTTTTTTTTTTTTCATTTGATATTA [TGCATGCA_negctrl_site112],9.54 ± 0.45

row,Sequence,gcPBM binding intensity (ln)
1,TTTGTATTAAAAAAAAAAAAAAAAAAAATGAATAAA [TGCATGCA_negctrl_site292],9.58 ± 0.2
2,TTATTTATTCTATGTGCATGTTATTTTTTTTTTTCG [TGCATGCA_site262],9.865 ± 0.064
3,AAAAATAAGATATATACACACATATAAATATAAATA [CACACA_site7396],9.74 ± 0.14
4,TATATATATATATGTGGTACATAAAATTATTATTTT [XGTACX_site4554],11.3 ± 0.78
5,ATAAAATTATCTACATGTACTCATATATATTTGTTT [XGTACX_site5911],11.2 ± 0.67
6,AGAGAGAAAGTTATAACATGCAACAATTTTTAGAAG [TGCATGCA_site1],9.8 ± 0.071
7,CTTTAAACCCTGAACACACACAAATACACCCAAAAA [CACACA_site4297],10.7 ± 0.54
8,AAAAAAAAAAAAAACACACAGAAATATATATATATT [CACACA_site832],9.82 ± 0.33
9,AAAGGAAAAGTTGACTGTACATAAGTAAAAAATAAT [XGTACX_site788],11 ± 0.35
10,TTTATACAAATATGTACACACTAAATATATATTATG [CACACA_site4413],11.5 ± 0.77
11,ATTCATTCCATACTTTAACACACAAATATATTTAAT [CACACA_site7930],10.17 ± 0.085
12,ATATTATACGCATATGTGCGCATACATTTTTTTGCA [GTGCAC_site9540],10.22 ± 0.035
13,TTATTTACAAAACAAATCAAAATATCCAAAAGAATA [CACACA_negctrl_site1789],9.825 ± 0.007
14,GAAATTACTTTATAAACACACATTTATTTTATTTTA [CACACA_site7007],9.79 ± 0.17
15,GGCATATATATATGCACACATACATATATACATGTG [CACACA_site3859],10.4 ± 0.2
16,TACACATACAGACATACACACATACCCATATACTCA [CACACA_site5037],10.07 ± 0.099
17,TTTTTGTAACCGATTCTGCACTGAGAAGCACATATA,10.2 ± 0.2
18,AGATTGTAAGTAAACACACACACATATATATGTATA [CACACA_site675],9.965 ± 0.064
19,TCATATTTATATAAATGTACTTAATTGGTTTCTTTA [XGTACX_site7848],11.1 ± 0.61
20,ATGTTATTAATAATTGCACACATTTTTTTTTTTTTT [CACACA_site3920],10.06 ± 0.021
21,CTTAAAATATATTTAGTGCATATACTAATATATTAT,9.875 ± 0.049
22,TATATATATATATTATGTACATATATAAATTAACAT [XGTACX_site3368],11.2 ± 0.83
23,AATATAGGAATATGCACACATATATACATACATACA [CACACA_site1521],10.3 ± 0.2

row,Sequence,gcPBM binding intensity (ln)
1,TTTTTTAAAGTTTAAAGTACATATAAAAATATATAA [XGTACX_site5267],11 ± 0.67
2,AAAAAAATAAAATATATATATATATATATATATATA [GTGCAC_negctrl_site706],9.96 ± 0.89
3,TATATATGGATATATACACACAACGGTTATAAATAT [CACACA_site6655],10.095 ± 0.007
4,ATAAATTCATACATTTGTACACAAAAAAAAAAAAAA [XGTACX_site2435],11.3 ± 1.1
5,CCTTATACGATATTATGTACGCATATGTGCATTTTT [XGTACX_site1570],11.5 ± 1
6,AATTAATAAAAAAGGTGTACAGTAAATGCAATAATC [XGTACX_site7956],11.7 ± 0.99
7,TCTTTTATATATAATAATTATATATAACATTCAAAC [GTGCAC_negctrl_site112],9.93 ± 0.099
8,GTTAATCACCATGTGGTGCATATAAGGGCATATTAT [GTGCAC_site9748],10.4 ± 0.23
9,TATTATATAATATACTGTACAATATCCATTATTTAC [XGTACX_site7091],10.7 ± 0.4
10,TATATTTACTTATATGCACACATAAATGTGAATTAT [CACACA_site9258],9.89 ± 0.085
11,ACATATAATAAAATAGTGCATTGTTAGTTTTATATA,9.875 ± 0.021
12,ATATATATATATTTATGTACATATTATTTATTCTTT [XGTACX_site6567],11.4 ± 0.59
13,ATTATTTGATTAAAGGTGCAAGGATAATAATAAAAC,10.3 ± 0.17
14,TAATGGTATAAAAAATGTACATGTTTTTTTACAATT [XGTACX_site4285],11.2 ± 0.54
15,AATTTTTTTTAATGATGTACTTTTTGAAAATAAACT [XGTACX_site4221],11.3 ± 0.85
16,TTTTCTTTTTCTTGTACACACATAATATGGATGAAA [CACACA_site808],11.4 ± 0.7
17,AAATAAATACATAATACATGCATATTTAATATATAG [TGCATGCA_site135],9.71 ± 0.13
18,GTACAATCATATACTACATGCAGTTTTTTTTATTGA [TGCATGCA_site230],10.6 ± 0.28
19,TAAAGAAACGCATCGACGCACACTACAAAATAAAAA [CACACA_site1348],10.2 ± 0.2
20,TTTTTATTTTTTCAGTGTACATTTAAATTATCTTAT [XGTACX_site3905],11.4 ± 0.76
21,ATATATATATATATTTATTCATATATTTTTTGTCTT [TGCATGCA_negctrl_site58],10 ± 0.71
22,TTACTTTTTTTTTTATGTACTTATATTTTTTACACT [XGTACX_site3503],11.4 ± 0.73
23,TATGAATACATTTGTTGTACTTAAATTTCCTTTATT [XGTACX_site5374],11.4 ± 0.79

row,Sequence,gcPBM binding intensity (ln)
1,AAATAATTTATGCATACACACATATATATATATATA [CACACA_site4020],10.2 ± 0.35
2,TATAAATATCTGAATTGTACAGGTGAAAAAAAAAAT [XGTACX_site1867],10.7 ± 0.38
3,TTTTTTATTATTATTATTTTTTATGTATAATAATGT [CACACA_negctrl_site631],9.7 ± 0.13
4,TAGATATATAAATACACACACATACACAAAAAAAAA [CACACA_site7652],10.4 ± 0.35
5,AAAAAAAAAAAAAAAAATATATTTATGAAATAAAAA [TGCATGCA_negctrl_site262],10.3 ± 0.19
6,TATTTTTTTTTTTTTTTTTTTTTTATATATACATAT [CACACA_negctrl_site23],9.48 ± 0.085
7,TATAAACGTATAATATGTACACACACATATATACAA [XGTACX_site1686],11.3 ± 0.94
8,ATTATATAGAATTGTACATGCGAATTGTATAACGAT [TGCATGCA_site125],11 ± 0.71
9,TTTCTATTCCATTCAACACACAAAAATGTATGCTTT [CACACA_site1072],9.96 ± 0.13
10,AATGGATATTTCTTTATATATATCTTATTTGATTAT [XGTACX_negctrl_site284],9.62 ± 0.16
11,TATACATGTATATATTGTACATATGTTTTTTTTACA [XGTACX_site3300],11 ± 0.5
12,TTTTTTCAAATTTTCTTTTTTCTTTTGTTTTTTTTG [CACACA_negctrl_site380],9.21 ± 0.42
13,TTACTCATGAAAGATACACACATTCGTTATTTATAT [CACACA_site7517],10.07 ± 0.092
14,TTTTTATAATGATACATATATTATTTTATTCTTAAT [CACACA_negctrl_site124],9.65 ± 0.17
15,TTTTTCTTTCTATTTATCAATATTAAAAAAAAAAAA [CACACA_negctrl_site1629],9.94 ± 0.52
16,CTTGTAGATATAAAATGTACAAAAATAAATTGCACA [XGTACX_site4409],10.7 ± 0.54
17,AGATATTCTACTATGTGTACATATATATATATAATT [XGTACX_site5060],11.4 ± 0.76
18,ATTATTATTAATCTTGTGCACATATATTTTAATTAG,10.3 ± 0.14
19,GAAGAAGTTTAAAAAGCACACAAAAAAAAAAAAAAA [CACACA_site9088],9.87 ± 0.49
20,CACAAAATAAATTAAACACACAACATCATATATGTA [CACACA_site846],10.04 ± 0.049

# — the supplement of paper PMC11417369
